Test results published in PubChem BioAssay AID686979 (National Center for Advancing Translational Sciences (NCATS), 2013).
Screen size: about 420,000 compounds; about 50,000 (12%) were called active. This list was built around the results that the source calls inconclusive (neither active nor inactive); the mix of calls is not that of the screen. The call rests on the fitted dose curve; in most records, active means well fitted inhibition curve with a large enough effect; inconclusive means small, poorly fitted or top-dose-only effect; inactive means flat fitted curve, though single readings scatter. Potencies of inconclusive entries are left out as doubtful fits.

Assay: qHTS for Inhibitors of human tyrosyl-DNA phosphodiesterase 1 (TDP1): qHTS in cells in presence of CPT; further: nearly all actives have a fitted effect of over 55% in size
Conditions: chicken DT40 Tdp1-/-;hTDP1 cells + 20 nM CPT, ATP luminescence, 48 h; series mostly up to 46.2 µM
Method in brief: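 Chicken DT40 Tdp1-/- cells complemented with human TDP1, 400 cells/well, exposed to compounds plus 20 nM camptothecin for at least 48 h at 37 C; viability read as ATP content by CellTiter-Glo luminescence.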
Potency means the concentration at half of the fitted maximal effect; tags describe the fitted curve by direction and shape.

Compound | Potency
Cc1ccc2cccc(OCC(=O)Nc3cccc(S(=O)(=O)N4CCCC4)c3)c2n1 | active: 20.6 µM
O=C(c1ccc2ccccc2c1)C1CCCN(S(=O)(=O)c2cccnc2)C1 (stereo not drawn) | active: 23.1 µM
CCN(C(=S)Nc1ccccc1F)C1CCCCC1 | inconclusive [inhibitor, single point]
COCCNC(=O)c1ccc2c(c1)N(Cc1ccc(C(F)(F)F)cc1)C(=O)c1ccccc1S2 | active: 16.4 µM
Cc1ccc(S(=O)(=O)N2CCN(c3cc4c(cc3[N+](=O)[O-])n(C)c(=O)n4C)CC2)cc1 | inconclusive [inhibitor, single point]
CSc1ccc(C(=O)N2CCc3ccc(NC(=O)c4ccccn4)cc3C2)cc1 | inconclusive [inhibitor, single point]
Cc1ccc2nc(-c3ccc(NC(=O)CSc4ccccc4)cc3)[nH]c2c1 | active: 10.3 µM
CCOc1ccccc1NC(=O)C(=O)CC(=O)c1ccc(OC)cc1 | inconclusive [inhibitor, single point]
COCCNC(=S)N1CCN(c2nc(-c3ccccc3)cs2)CC1 | inconclusive [inhibitor, single point]
O=C(CCc1ccncc1)N1CCCC(Nc2ccc(F)c(F)c2)C1 (stereo not drawn) | inactive
COc1ccc2[nH]c3c(c2c1)CCN1C(=O)C(CC(=O)NCC24CC5CC(CC(C5)C2)C4)C[C@H](C(=O)N2CCCCC2)[C@@]31C (stereo partly drawn) | inconclusive [inhibitor, single point]
Cc1nc2c(OCc3cc(Cl)cc(Cl)c3)cccn2c1N(C)C(=O)CCC1CCCC1 | inconclusive [inhibitor, single point]
O=C(NCc1cccnc1)c1cc(C2CCCCN2C(=O)c2ccccc2)on1 (stereo not drawn) | inconclusive [inhibitor, partial curve, poor fit]
CC(C)c1ccc(S(=O)(=O)c2nnn3c2nc(N2CCOCC2)c2sccc23)cc1 | inconclusive [inhibitor, single point]
Cc1ccccc1OCC(=O)Nc1c(C)ccc2nsnc12 | inconclusive [inhibitor, single point]
COC(=O)[C@]12CCCCC=C1N(Cc1ccccc1)C(=O)[C@H](CC(=O)N1CCSCC1)C2 | inconclusive [inhibitor, single point]
CN(C)CCCNc1nc2cc(-c3cccc(C(F)(F)F)c3)sc2c(=O)n1C | active: 18.4 µM
CC(=O)Nc1ccc(OCC(=O)N(CC(C)C)C2CCS(=O)(=O)C2)cc1 (stereo not drawn) | inactive
